Some of the results follow. Sequences were assembled here from the parent chain. Inactive controls read about 0.05.
B1: TEV protease; numbered along this chain (parent)
chain: MGESLFKGPRDYNPISSSICHLTNESDGHTTSLYGIGFGPFIITNKHLFRRNNGTLVVQSLHGVFKVKDTTTLQQHLVDGRDMIIIRMPKDFPPFPQKLKFREPQREERICLVTTNFQTKSMSSMVSDTSCTFPSGDGIFWKHWIQTKDGQCGSPLVSTRDGFIVGIHSASNFTNTNNYFTSVPKNFMELLTNQEAQQWVSGWRLNADSVLWGGHKVFMVKPEEPFQPVKEATQL

Variants of: B1
Test: raw area under fraction-flipped curve 0-4 h after induction (AUC4h, not background-subtracted), DNA-recorder readout of cleavage of the substrate (dimensionless); higher = more cleavage of the substrate by the protease variant
Details: temperature: 34 °C; time window: 0-4 h after rhamnose induction
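Further: Bxb1 expression induced with 0.2% (w/v) L-rhamnose at OD600 near 0.5, cultures sampled hourly, flipped fraction per protease–substrate barcode pair counted by paired-end Illumina sequencing.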

Row | Variant | area with substrate EKLYFQS | area with substrate EVLYFQS | area with substrate EHLYFQS | area with substrate EGLYFQS | area with substrate EILYFQS | area with substrate EQLYFQS | area with substrate ERLYFQS | area with substrate ESLYFQS | area with substrate EMLYFQS | area with substrate ETLYFQS
1 | V58E | 0.0361 | 0.0387 |  |  |  |  |  |  |  | 
2 | V58T |  |  | 0.118 |  |  |  |  |  |  | 
3 | Q197F | 0.114 | 0.105 |  | 0.0995 | 0.128 | 0.106 | 0.119 | 0.118 |  | 
4 | N178W |  |  |  |  |  |  |  |  | 0.135 | 
5 | E195V | 0.0784 |  |  |  |  |  |  | 0.0849 |  | 
6 | G138C | 0.0888 |  |  |  |  |  |  | 0.07 |  | 0.085
7 | E223G |  |  | 0.0952 |  |  | 0.131 |  |  |  | 
8 | G8E |  |  |  |  |  | 0.127 |  |  |  | 
9 | P93Y |  |  |  |  | 0.0778 | 0.0941 |  |  | 0.107 | 
10 | Q234D | 0.131 | 0.0997 | 0.109 |  | 0.0966 | 0.144 | 0.118 | 0.116 | 0.104 | 
11 | R87K |  |  |  | 0.127 | 0.106 |  | 0.19 |  |  | 
12 | E103F | 0.118 | 0.0742 | 0.0893 |  | 0.132 |  |  | 0.105 |  | 
13 | R51G | 0.121 |  |  |  | 0.0737 |  | 0.0908 | 0.125 |  | 
14 | V220T | 0.115 |  |  |  |  |  | 0.0949 | 0.103 |  | 
15 | N206A |  | 0.079 |  |  |  |  |  |  |  | 
16 | T71M | 0.0733 |  |  |  |  | 0.103 |  | 0.0927 | 0.103 | 
17 | A196R |  |  |  |  |  |  |  | 0.108 |  | 0.127
18 | C131Y |  |  |  |  |  | 0.0876 | 0.134 | 0.11 |  | 

Row | Variant | area with substrate EKLYFQS | area with substrate EVLYFQS | area with substrate EHLYFQS | area with substrate EGLYFQS | area with substrate EILYFQS | area with substrate EQLYFQS | area with substrate ERLYFQS | area with substrate ESLYFQS | area with substrate EMLYFQS | area with substrate ETLYFQS
19 | T129E |  | 0.0912 |  |  | 0.0968 | 0.102 |  | 0.0873 | 0.0988 | 0.102
20 | F218K | 0.0692 | 0.0795 |  |  |  |  |  | 0.0643 |  | 
21 | Q59A |  | 0.0815 |  |  |  | 0.113 | 0.117 |  | 0.128 | 
22 | F65S | 0.0881 |  |  |  | 0.116 | 0.0886 |  | 0.0965 | 0.0654 | 0.113
23 | V217R |  |  |  |  |  |  | 0.065 | 0.0584 |  | 
24 | P225S |  | 0.0024 |  |  | 0.0769 | 0.0882 | 0.0868 |  |  | 
25 | N186I | 0.0804 |  |  |  | 0.0735 |  |  |  | 0.0812 | 
26 | N186C | 0.121 |  | 0.11 |  |  |  | 0.104 | 0.101 |  | 
27 | F95T |  | 0.0533 |  | 0.057 | 0.105 |  |  |  | 0.158 | 
28 | D82I |  |  | 0.0447 |  |  |  |  | 0.0535 |  | 
29 | D161P | 0.058 | 0.0757 |  |  | 0.0516 |  |  |  |  | 
30 | N116R | 0.117 |  |  |  |  | 0.114 |  | 0.11 | 0.129 | 0.146
31 | N172F |  |  |  |  |  |  | 0.0415 | 0.0576 | 0.0741 | 
32 | G54F | 0.0845 | 0.073 | 0.082 |  | 0.071 | 0.0942 |  | 0.0967 | 0.0712 | 
33 | Y179N |  |  |  |  | 0.0425 | 0.062 |  |  |  | 
34 | W199I | 0.0403 |  |  |  | 0.0793 | 0.073 |  |  | 0.0476 | 
35 | Q146L | 0.129 |  | 0.0695 |  | 0.121 |  |  | 0.124 |  | 
36 | S171T | 0.164 |  | 0.172 |  |  |  |  |  |  | 

Same assay, conditions: temperature: 34 °C; time window: 0-4 h after rhamnose induction

Row | Variant | area with substrate EWLYFQS | area with substrate EYLYFQS | area with substrate ELLYFQS | area with substrate EPLYFQS
37 | G138C | 0.0712 |  |  | 
38 | G8E |  | 0.133 |  | 
39 | P93Y |  |  | 0.0837 | 
40 | Q234D |  | 0.0964 | 0.0906 | 
41 | R87K |  | 0.111 |  | 
42 | E103F |  |  |  | 0.0667
43 | R51G |  |  |  | 0.128
44 | V220T |  |  | 0.117 | 0.115
45 | C131Y |  | 0.14 |  | 
46 | T129E |  | 0.0932 |  | 
47 | F218K | 0.0803 |  |  | 
48 | Q59A |  |  |  | 0.147
49 | F65S | 0.0774 | 0.0962 |  | 
50 | V217R | 0.0461 |  |  | 
51 | P225S | 0.104 | 0.0709 | 0.0984 | 
52 | N186C |  |  |  | 0.136
53 | F95T |  |  | 0.0569 | 
54 | D82I | 0.0561 |  |  | 
55 | D161P |  |  |  | 0.0296
56 | N116R | 0.0777 |  | 0.0916 | 
57 | N172F | 0.0707 | 0.055 |  | 
58 | I84P | 0.0243 | 0.0325 |  | 
59 | G54F |  | 0.0668 |  | 
60 | Y179N |  |  |  | 0.0513
61 | W199I |  |  | 0.0613 | 0.0726
62 | S171T |  |  |  | 0.14
